Measured values taken from the supplement of paper PMC10126150.
Values marked as one replicate rest on one cluster of the flow cell; about a third of the high ones do not repeat.

Tested on: ATP
Assay: switch fluorescence ratio, 500 uM ATP over buffer (Cy3 cluster intensity, sum of 5 cycles each) (fold (ratio)); higher = stronger signal-on switching upon ATP binding; sequences stand for … in TCGTCGGCAGCGTCAGATGTGTATAAGAGACAGTTTTTTTTTTTTTTTTTTTTTTTTT…TC
Conditions: aptamer strand: ATP DNA aptamer (quencher-CACCTGGGGGAGTATTGCGGAGGAAGG + anchor), 100 nM annealed; ATP concentration: 500 uM; one replicate
Method in brief: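 Cy3-labelled switching-strand clusters on a modified Illumina MiSeq flow-cell were annealed to 100 nM quencher-labelled ATP aptamer and imaged first in selection buffer, then after 15 min with 500 uM ATP at 22 °C. NaOH stripping and re-annealing separated each of five buffer/ATP cycles, and clusters outside 100-1000 RFU were excluded. The fluorescence ratio sums target-cycle Cy3 intensity over buffer-cycle Cy3 intensity per cluster and averages it per switch-domain sequence.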
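Also: ATP exposure 15 min at 22 °C before imaging.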

Row | Sequence | switch fluorescence ratio
1 | TCTTGGATCC | 1.01
2 | TGCGGGCGGG | 1.04
3 | TCCAGCACCA | 1.14
4 | ATGAGCTGA | 1.01
5 | GAGAAATTGA | 1.02
6 | AGGGTTCATA | 1.03
7 | TACCTCAAG | 1.1
8 | CCCCAGCTCG | 1.06
9 | ATTGCAAATG | 0.973
10 | TCCGTCCTGG | 0.988
11 | GAATGCTTGA | 1.03
12 | GGAGGCTGAT | 1.04
13 | CAATTACACG | 1.03
14 | AATCTTACAT | 1.01
15 | GAATAGGCTG | 0.987
16 | GATCACTATC | 0.999
17 | AGAGTGATCA | 1.02
18 | TAAATCGCTC | 1
19 | GCATGAGTCA | 1.01
20 | CTGTTTGGAG | 0.995
21 | AGAAGTGAAA | 0.979
22 | AAGGCCGGGG | 0.97
23 | TAAGGTACTA | 1.02

Row | Sequence | switch fluorescence ratio
24 | AGAAAATATC | 1.02
25 | TGCGCCCCAA | 1.15
26 | TTCATTCCGC | 2.73
27 | TAAAGCCTCT | 1.03
28 | ATTGAGGAGT | 1.03
29 | CATGGATGAC | 0.96
30 | ATTATGATGA | 1.01
31 | TTATCGCCTT | 1.02
32 | GGTATACAAC | 1.02
33 | GAGGCAAGCA | 1.11
34 | AAATGTTAAA | 1.01
35 | TAGGGGG | 0.958
36 | TGGATGTTGT | 1.01
37 | TAAATTAACC | 1.07
38 | CTACCCGGT | 1.07
39 | CGCCCTCAAA | 1.04
40 | TCTTGCGTTA | 1.06
41 | TAGCTCACAC | 1.06
42 | ATCTATTTCC | 1.02
43 | GAATTGCTCG | 0.995
44 | TATTGGAGTC | 1.01
45 | CGTCGGCGAC | 0.996
46 | GATAGGTGGA | 0.991

Row | Sequence | switch fluorescence ratio
47 | AGATGAAGGT | 1.02
48 | CGTAATCCGT | 0.996
49 | GGAACTAAGA | 0.992
50 | ATATTTTGGT | 0.992
51 | TGGGCGCAAT | 1.64
52 | AGTAGACACG | 0.936
53 | GGGCATTCAC | 1.15
54 | GACGAGGGA | 1.08
55 | GACGGTAGAC | 1.87
56 | TGAACATGAC | 1.3
57 | TTTAACCCTG | 1.01
58 | CCAGTTAATA | 1.03
59 | AATCCCATAT | 0.996
60 | TTTCTTACTA | 1.07
61 | AACGGCTGCT | 1
62 | CGGTATTTGA | 1.07
63 | GGTGGCTTAT | 0.989
64 | ATTATCCAAA | 1.01
65 | TTTGTACGTG | 1.05
66 | CTCGGGAAAC | 1.13
67 | TCCCGAGTTA | 1.01
68 | CGACATGAGA | 1.02
69 | CACTCTGGGG | 1.04

Row | Sequence | switch fluorescence ratio
70 | TGGGGTTTAA | 0.938
71 | AATATATCCA | 1.01
72 | TGCATGATAG | 1.01
73 | ATCCATTTCT | 0.986
74 | GTATAGTCG | 1.03
75 | GATTTAGCAT | 1.04
76 | ATGGGTCGAT | 1.04
77 | ATAAAAAGTG | 1.08
78 | AGCCTGTCCT | 1.04
79 | GGAATCGGAC | 1.12
80 | TGTACGAGGC | 1.04
81 | CAATGCCGCG | 1.05
82 | AGGGCCTTCT | 1
83 | CGTAATGGTC | 1.35
84 | GTGTAGGGGC | 1.14
85 | CGTCATCGAC | 1.02
86 | GGCCGGCGTT | 1.02
87 | CTTCACGTGG | 1.03
88 | AAATCAATAA | 0.99
89 | AGGTACGTGC | 0.99
90 | GGATAAGTC | 0.991
91 | GCGCGCGCCC | 0.958
92 | CCGGACTTAA | 1.09

Row | Sequence | switch fluorescence ratio
93 | GATTTTTTA | 0.981
94 | AAGGGATCTT | 0.999
95 | GCATCAGCCA | 1.02
96 | CCGGCATCTC | 1.96
97 | AAAAATACCA | 0.987
98 | CCTACAGGGG | 2.77
99 | AACTGCTGAC | 1.17
100 | CAAGATAGGT | 1
101 | TGTCCGCAGG | 1.08
102 | AGGCCCACGT | 1.01
103 | TGCACAGAAG | 1.02
104 | TTGCAGCCCA | 0.94
105 | AGGTATCAT | 1.01
106 | TGGTCGTTTG | 0.997
107 | TACTGTCCAG | 1.02
108 | AAATGCTTTT | 0.958
109 | CACAGGTCCA | 1.07
110 | GGGCGGCTTC | 1.04
111 | AACTTTGCCA | 1.01
112 | GATGGTACAC | 1.02
113 | TATTATAATG | 0.983
114 | TAGGTCAGCC | 1.01
115 | CTTGATTTAT | 1.03

Row | Sequence | switch fluorescence ratio
116 | GACCTCGCGA | 2.26
117 | TGCGGGTGCA | 0.995
118 | CTGAGACTGC | 1.08
119 | ACATTAACTT | 1.09
120 | CCAGGGGATA | 1.04
121 | CTCAGACCAC | 1.07
122 | GGCTTGTAGT | 1.01
123 | TTACTGATA | 1.02
124 | GGGACCATGG | 1.02
125 | ACTAGGACAG | 1.02
126 | TGGATTTTTA | 1.02
127 | GCTCCTAGGT | 1.08
128 | TATTAGCGCG | 1.04
129 | CGCATATGCC | 1.16
130 | GCTCTTCATT | 0.968
131 | ACCGGCCGGG | 1.04
132 | GACCGCACAG | 1.22
133 | CCGAGGGCGG | 1.24
134 | CGGTCGATTG | 0.941
135 | CCAGAAACGA | 1.05
136 | CCTGTGTGTC | 1.06
137 | CTATGGTCTC | 0.954
138 | ATTTGGCTGC | 1.01

Row | Sequence | switch fluorescence ratio
139 | TACAAGAGAA | 0.994
140 | TTTCGTTC | 1.05
141 | TACATCCTTG | 1.01
142 | AAAGGCCCTT | 1
143 | AATGCGGATC | 1.05
144 | TTGGCTGAGT | 1
145 | TAAAAATTCC | 1.1
146 | CTTAATATTT | 1.03
147 | CATGATAGTC | 0.95
148 | GATCTTAGGA | 0.944
149 | GCGTTACAGT | 1.05
150 | GGGACGGCTA | 0.99
151 | TGGGAAGCTG | 0.952
152 | GGCGCTTTGG | 1.06
153 | ATCTGTGTAA | 0.969
154 | ATCCTGGGTC | 1.06
155 | CTAGAGAGGC | 1.01
156 | TCAGGATACT | 1.04
157 | ATCCTCCAA | 1.32
